Experimental data: PubChem BioAssay AID485281 (National Center for Advancing Translational Sciences (NCATS), 2010)
The campaign covered roughly 350,000 compounds. About 260 (0.074%) were called active. The inconclusive results got no clear call from the source; some entries with a clear call stand among them for comparison. The call rests on the fitted dose curve; in most records, active means well fitted inhibition curve with a large enough effect; inconclusive means small, poorly fitted or top-dose-only effect; inactive means no such curve, though single readings can be large or run the other way. Potencies beside an inconclusive call are fits to weak or partial responses and may not hold up.

These molecules were tested against Ferritin light chain (Equus caballus) (UniProt P02791) (assay: qHTS Assay for Identification of Novel General Anesthetics). Conditions: apoferritin/1-aminoanthracene competitive binding, fluorescence; activity change, negative = displacement: at 77.5 µM (top of the series).
Sequence of UniProt P02791 (P02791 whole entry, looked up): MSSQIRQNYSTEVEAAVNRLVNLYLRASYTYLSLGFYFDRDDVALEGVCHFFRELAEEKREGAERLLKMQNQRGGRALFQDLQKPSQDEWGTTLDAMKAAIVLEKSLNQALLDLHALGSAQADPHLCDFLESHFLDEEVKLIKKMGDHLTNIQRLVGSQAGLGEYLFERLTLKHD
In short: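 10 uM apoferritin + 50% sat. 1-AMA, PBS; cpd 10 min RT; Ex380/Em535 endpoint; normalized to free probe vs complex; 4-param Hill fit; propofol titration as pos. ctrl.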
Further: nearly all actives have a fitted effect of over 20% in size.
On the % scale 0 is the no-effect control and ±100 the full control effect; potency means the concentration at half of the fitted maximal effect; tags describe the fitted curve by direction and shape.

SMILES	activity change, negative = displacement	Potency
O=C(CN1C(=O)/C(=C\c2ccco2)SC1=S)Nc1ccc(O)cc1C(=O)O	inactive: -13.1%	
COc1ccc(S(=O)(=O)Nc2ccc(-c3cn4c(C)csc4n3)cc2)cc1		inconclusive: 12.6 µM [inhibitor, full curve, poor fit]
CCC(C)c1ccc(OCC(=O)NNC(=O)C2CCCCC2)cc1 (stereo unspecified)		inconclusive: 14.1 µM [inhibitor, partial curve]
CCOC(=O)c1c(NC(=O)CSc2nnc(C)c(=O)[nH]2)sc2c1CCCC2		inconclusive: 35.5 µM [inhibitor, single point]
C[C@@H]1C=CC(=O)O[C@@H]1c1ccc(C(F)(F)F)cc1		inconclusive: 28.2 µM [inhibitor, partial curve]
C=COCCCNc1ncnc2sc(-c3ccccc3)cc12	inactive: 1.96%	
CCCN(CCC)CCCNC(=O)c1cc2c(-c3ccc(OC)c(OC)c3)nn(C)c2s1		inactive
COc1ccc(C2C(=O)N(C3CCCCCC3)CC(=O)N2Cc2ccc(C)cc2)cc1 (stereo unspecified)	inactive: 88.9%	
CC(C)c1ccc(OC(=O)c2cccc(S(=O)(=O)N3CCN(C)CC3)c2)cc1		inconclusive: 28.2 µM [inhibitor, partial curve]
CC(C)CCNC(=O)NC(=O)COc1ncnc2sccc12	inactive: -17%	
COc1cc(NC(=O)CCC(=O)Nc2ccc3nc(N4CCOCC4)cc(C)c3c2)cc(OC)c1OC	inactive: -1.02%	
Cc1ccc(S(=O)(=O)CNC(=S)c2cccc(Cl)c2)cc1		inconclusive: 31.6 µM [inhibitor, single point]
CCCc1ccc2oc(C(=O)N(C)Cc3nccs3)c(C)c2c1		inconclusive: 25.1 µM [inhibitor, partial curve]
O=C(CSc1nnc(CNc2ccc(F)cc2)n1-c1ccccc1)N1CCOCC1	inactive: -10.8%	
CCOCCCNS(=O)(=O)c1ccc2c(c1)OCCO2		inconclusive: 39.8 µM [inhibitor, single point]
CCOC(=O)c1c(N)c2cc([N+](=O)[O-])ccc2n1C	inactive: -0.108%	
CCCOC(=O)c1c(NC(=O)C(C)Sc2nc(-c3ccccc3)cc(C(F)(F)F)n2)sc(C(=O)N(C)C)c1C (stereo unspecified)		inconclusive: 3.98 µM [inhibitor, full curve]
OCc1cc(-c2ccc(Cl)c(Cl)c2)on1		inconclusive: 28.2 µM [inhibitor, partial curve]
CCOc1ccc(NC(=O)CN(C)Cc2cc(=O)n3c(-c4ccccc4)csc3n2)cc1OCC		inconclusive: 35.5 µM [inhibitor, single point]
CC1CCCC(NC(=O)COC(=O)COc2ccccc2Cl)C1C (stereo unspecified)		inconclusive: 10 µM [inhibitor, partial curve]
OC(c1ccc(OCc2ccccc2)cc1)c1nnc(-c2ccccc2)o1 (stereo unspecified)		inconclusive: 2.82 µM [inhibitor, full curve]
CCn1cc(S(=O)(=O)N2CCN(Cc3ccc(F)cc3)CC2)cn1	inactive: -6.91%	
O=C(Nc1ccc2snnc2c1)N1CCSCC1		inconclusive: 28.2 µM [inhibitor, partial curve]

SMILES	activity change, negative = displacement	Potency
CCOC(=O)c1cc(S(=O)(=O)NCc2ccc(C)cc2)[nH]n1	inactive: -1.22%	
Oc1ccc(-c2csc(NCc3ccco3)n2)cc1		inconclusive: 25.1 µM [inhibitor, partial curve]
O=C(CSc1nccc(-c2cccs2)n1)Nc1cccc(Cl)c1		inconclusive: 22.4 µM [inhibitor, partial curve]
CCOC(=O)C(=Cc1ccccc1)C(=O)OCC	inactive: -6.83%	
CSc1ccc(CCNC(=O)CCn2c(=O)c3cccn3c3ccc(F)cc32)cc1	inactive: -2.32%	
Cc1ccc(-c2nc(N=Nc3ccc(O)cc3)n[nH]2)cc1	inactive: -14.1%	
COc1ccc(N2CSC3=C(C#N)C(c4cc(OC)c(OC)cc4OC)CC(=O)N3C2)c(OC)c1 (stereo unspecified)		inconclusive: 28.2 µM [inhibitor, partial curve]
Cc1ccc(CNC(=O)c2cc(C)nc3c2c(C)nn3-c2ccc(C)cc2)cc1		inconclusive: 3.55 µM [inhibitor, single point]
Cc1ccc(S(=O)(=O)NC2=NCN(C)CN2)cc1[N+](=O)[O-]		inconclusive: 35.5 µM [inhibitor, single point]
CCCCOc1ccc(C2(C)CC(=O)NC2=O)cc1 (stereo unspecified)		inconclusive: 22.4 µM [inhibitor, partial curve]
Cc1ccc2c(c1)-c1ncc(C(=O)c3ccccc3O)cc1CO2		inconclusive: 11.2 µM [inhibitor, partial curve]
CCOc1cc(/C=N/NC(=O)COc2ccc(Cl)cc2)ccc1OS(=O)(=O)c1ccccc1		inconclusive: 3.55 µM [inhibitor, full curve, poor fit]
CCCCC1CCC(C(=O)N(C)CC(=O)Nc2cccc(F)c2)CC1 (stereo unspecified)		inconclusive: 14.1 µM [inhibitor, partial curve]
Nc1ccc2c(c1)COc1ccccc1O2		inconclusive: 44.7 µM [inhibitor, partial curve]
COc1cccc(NC(=O)C(=S)NC2CCCCC2)c1		inconclusive: 17.8 µM [inhibitor, partial curve]
O=C1C2CCCCN2C(=O)N1CCCCN1CCN(c2ccccc2Oc2ccccc2)CC1 (stereo unspecified)	inactive: -14.1%	
O=C1CC(C(=O)Nc2ccccc2)S/C(=N\NC(=O)c2ccccc2Cl)N1 (stereo unspecified)		inconclusive: 15.8 µM [inhibitor, partial curve]
COCCCN1C(=O)c2[nH]nc(-c3ccccc3O)c2C1c1cccc(Cl)c1 (stereo unspecified)		inconclusive: 44.7 µM [inhibitor, single point]
O=C(CSc1ccccn1)N1CCCC(Nc2ccccc2)C1 (stereo unspecified)		inconclusive: 31.6 µM [inhibitor, partial curve]
CC(C)(C)C1CCc2nc(NC(=O)Cc3cn4ccsc4n3)sc2C1 (stereo unspecified)		inconclusive: 11.2 µM [inhibitor, partial curve]
CCN1C(=O)CSC1=Nc1ccccc1Cl		inconclusive: 14.1 µM [inhibitor, partial curve]
COCc1cc(C)nc2sc(C(=O)Nc3cccc(OC)c3)c(N)c12	inactive: -4.21%	
COC(=O)C1=C(C)NC(=O)/C1=C\c1cc(C)n(-c2cc(C)cc(C)c2)c1C		inconclusive: 50.1 µM [inhibitor, single point]
